# Data from PubChem BioAssay AID686971 (National Center for Advancing Translational Sciences (NCATS), 2013).
# About 7,500 (2.1%) of roughly 360,000 compounds were called active. Inconclusive results, whose numbers are uncertain, are shown with a selection of clear calls. Calls follow the shape of the dose curve; as a rule, active = well fitted cell-killing curve with a large enough effect; inconclusive = small, poorly fitted or top-dose-only effect, or effect the other way, or another doubt; inactive = no such curve, though single readings can be large or run the other way. No potency is given beside an inconclusive call; the fits are too rough. A structure can be active in one record and inactive in another.
# Experiment: qHTS for induction of synthetic lethality in tumor cells producing 2HG: qHTS for the HT-1080-IDH1KD cell line;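 as to activity, negative = toxicity: 0% = DMSO wells and -100% = cell-free medium wells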
# Details: HT-1080 IDH1 knockdown viability, ATP luminescence, 48 h; activity, negative = toxicity: at 46.1 µM (top of the series) unless noted
# Outline: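 Luminescent ATP read-out (CellTiter-Glo, 10 min at room temperature) after 48 h compound exposure at 37 °C gave viability of IDH1-knockdown HT-1080 cells. Activity was normalised to DMSO and cell-free wells, then fitted as concentration-response curves.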
# Potency is read from the fitted curve at half-maximal effect; tags tell the direction and shape of the fitted curve.
SMILES,Potency,"activity, negative = toxicity"
CC(C)(C)c1ccc(C(=O)NCCCN2CCN(CCCNC(=O)c3ccc(C(C)(C)C)cc3)CC2)cc1,"inconclusive [cytotoxic, single point]",
O=C(Cn1nc(-c2ccccc2)ccc1=O)NCCN1CCN(c2cccc(Cl)c2)CC1,"inconclusive [cytotoxic, single point]",
COc1ccc(CNC(=O)CN2C(=O)NC3(CCCCCC3)C2=O)cc1,,inactive: -0.933%
COc1cc(OC)cc(-c2sc3ccc(OC)cc3c2C#CC(C)(C)O)c1,"inconclusive [cytotoxic, single point]",
Cc1ccc(NC(=O)CSc2nc(=O)n(CCN(C)C)c3c2CCCC3)cc1Cl,"inconclusive [cytotoxic, single point]",
COc1ccccc1-c1ncn(Cc2cccc(-c3ccccc3)c2)c1-c1ccco1,"inconclusive [cytotoxic, single point]",
CC[n+]1c(/C=C/C=C/N(C(C)=O)c2ccccc2)sc2ccccc21,"inconclusive [cytotoxic, single point]",
O=C1C(SCCO)=C(SCCO)C(=O)c2ccccc21,"inconclusive [cytotoxic, full curve, poor fit]",
O=C(CCSc1nc(-c2ccco2)cc(C(F)(F)F)n1)NCc1ccccn1,,inactive: 14.5%
Cc1ccc(C(=O)Nc2nc3ccc(S(C)(=O)=O)cc3s2)o1,"inconclusive [cytotoxic, single point]",
COCc1ccc(C(=O)OC(C)C(=O)Nc2c(C)n(C)n(-c3ccccc3)c2=O)cc1 (centres undefined),,inactive: 13%
O=C(O)c1ccc(/C=N/NC(=O)c2cc3c(ccc4ccccc43)o2)cc1,,inactive: 12%
CC(C)(C)c1ccc(-c2nc(C#N)c(NCc3ccncc3)o2)cc1,"inconclusive [cytotoxic, single point]",
O=C(COc1ccc(-c2ccccc2)cc1)N/N=C/c1cc(O)ccc1Br,"inconclusive [cytotoxic, single point]",
CCCCCCCCN1C(=O)[C@H](CC(=O)NCc2ccc(C)o2)C[C@@]2(C(=O)OC)CCCCC=C12,"inconclusive [cytotoxic, single point]",
CCOc1ccc(NC(=O)N(O)C2(C#N)CCCCC2)cc1,,inactive: 9.38%
COc1ccc(OC)c(S(=O)(=O)Nc2ccc3c(c2)n(C)c(=O)n3C)c1,,inactive: -15%
CCCc1c(C(=O)NNc2ccc(C)cc2)cnn1-c1ccccc1,"inconclusive [cytotoxic, full curve]",
Cn1cc(CCC(=O)N2CCCC(N3CCN(c4ccccc4F)CC3)C2)cn1 (centres undefined),"inconclusive [rising, single point]",
CCOc1ccc(NS(=O)(=O)c2ccc(C(=O)N(C)CC(=O)Nc3cccc(OC)c3)cc2)cc1,"inconclusive [cytotoxic, single point]",
COc1ccc(OC)c(/C=C/C(=O)c2ccc3c(c2)OCO3)c1,"inconclusive [cytotoxic, partial curve]",
CC(SC(C)C(=O)NN=Cc1cccc(Cl)c1)C(=O)NN=Cc1cccc(Cl)c1 (centres undefined),"inconclusive [cytotoxic, partial curve, poor fit]",

SMILES,Potency,"activity, negative = toxicity"
CCCn1nc(NC(=O)CC(C)C)c2cc3ccccc3nc21,,inactive: 9.57%
CCOc1ccc(OCC)c(NC(=O)CN2CCN(c3cc(C)ccc3C)CC2)c1,"inconclusive [cytotoxic, single point]",
Cc1nn(C(C)(C)C)c(OC(=O)c2ccc3c(c2)OCO3)c1S(=O)(=O)c1ccccc1,"inconclusive [cytotoxic, single point]",
O=c1cc(-c2ccccc2)[nH]c2cc(Cl)ccc12,active: 0.58 µM,
Cc1cccc(CS(=O)(=O)c2nnc([C@H](Cc3ccccc3)NC(=O)OC(C)(C)C)o2)c1,active: 2.82 µM,
CCOC(=O)c1ccc(NC(=O)CN2C(=O)NC3(CCCCCCC3)C2=O)cc1,"inconclusive [cytotoxic, single point]",
O=C(Nc1ccc2oc(-c3cccnc3)nc2c1)c1ccc([N+](=O)[O-])o1,"inconclusive [cytotoxic, single point]",
O=C(CCN=C1NS(=O)(=O)c2ccccc21)NCc1ccccc1F,,inactive: 6.24%
Cc1ccc(/C=N/NC(=O)c2cc(-c3cccnc3)nc3ccccc23)cc1,active: 1.3 µM,
COc1ccc(NS(=O)(=O)c2cccc(C(=O)NCc3ccccc3CN3CCCC3)c2)cc1,"inconclusive [cytotoxic, single point]",
N#C/C(=C\C=C\c1ccccc1[N+](=O)[O-])C(=O)NCc1ccccc1,"inconclusive [cytotoxic, full curve]",
COc1cc(/C=C2\SC(N)=NC2=O)ccc1O,active: 18.4 µM,
O=C(NCc1ccccc1)C(C1CC1)n1c(CSCCOc2ccccc2)nc2ccccc21 (centres undefined),"inconclusive [cytotoxic, single point]",
CCNC(=O)C1(C)CCCN(Cc2ccccc2-c2ccccc2)C1 (centres undefined),,inactive: 25.4%
CCc1cc2c(=O)n(CCC(C)C)c(=S)[nH]c2s1,"inconclusive [cytotoxic, single point]",
CN(C)CC(C)(C)CNS(=O)(=O)c1ccc(Cl)c(Cl)c1,active: 16.4 µM,
O=C(CCl)NC(Cc1ccccc1)C(=O)OCC(=O)c1ccc(-c2ccccc2)cc1 (centres undefined),"inconclusive [cytotoxic, single point]",
COc1cc(/C=C/C(=O)CC(=O)/C=C/c2ccc(O)c(OC)c2)ccc1O,active: 2.59 µM,
CC(=O)c1cc2c(cc1NC(=O)C1CC=CCC1C(=O)O)OCO2 (centres undefined),,inactive: 11.8%
Cc1cc(C)n(-c2ccc(C(=O)OCC(=O)Nc3ccccc3[N+](=O)[O-])cc2)n1,,inconclusive: -33.1% [cytotoxic]
C=CCOC(=O)c1[nH]c2c(c1C)C(=O)CC(c1ccco1)C2 (centres undefined),active: 0.366 µM,
Cc1cc(C)c(OCCCCN2CCNCC2)c(C)c1,"inconclusive [cytotoxic, single point]",
